Out of some 150,000 compounds screened, about 540 (0.36%) showed an effect of 50% or more. Some of the results follow.

The experiment deals with Plasmodium falciparum. The experiment is described as follows: Primary screen in NF54 nanoGlo assay, in single point, at 2uM, 72h; a lower Z score goes with more inhibition. Format: functional, Erythrocyte. The conditions noted are these: timepoint 72 hour.
In general, % Inhibition refers to the relative decrease from the control value, in per cent. On to `Cc1c(NC2CCC(C)CC2n2cncn2)cnn1C` (centres undefined), for which the “% Inhibition” value turned out to be 2% and the Z score is -0.24.

In the case of `O=C(CCc1cccc(Cl)c1)N1CCC(n2c(=O)[nH]c3ccc(F)cc3c2=O)CC1`, the “% Inhibition” value is -9% and the Z score was 1.16.

With `COc1cc(C2CN(C(=O)C3CCCC3)CC2C(=O)NCC(C)C)cc(OC)c1OC` (centres undefined), the “% Inhibition” value was -5% and the Z score was 0.73.

With `CC[C@H](C)NC(=O)c1ccc(F)cc1Cl`, the “% Inhibition” value is reported as -10% and the Z score is 1.55.

With `COC[C@H]1[C@@H](NC(=O)C(C)(C)Oc2cc(C)ccc2C(C)C)[C@H]2CCO[C@H]21`, the “% Inhibition” value is recorded as -10% and the Z score came out at 1.12.

For `CC(C)CN1CCCN(C(=O)c2cc(Cl)c[nH]2)CC1`, the “% Inhibition” value is recorded as 3% and the Z score is -0.59.

With `Cc1cnc(C(=O)N2CCC[C@H]2C(=O)OCc2ccccc2)cn1`, the “% Inhibition” value is -19% and the Z score is reported as 2.41.

On to `Cc1nn(-c2ccccc2)c2nc3c(F)c(F)c(F)c(F)c3cc12`, for which the “% Inhibition” value was determined as 26% and the Z score is reported as -2.89.

For `CC(C)(C)OC(=O)N1CC2CC(=O)CC1C2` (centres undefined), the “% Inhibition” value is 3% and the Z score was -0.39.

As to `Cc1cc(NS(=O)(=O)c2ccc3c(c2)CCCC3)ccc1N1CCCC1=O`, the “% Inhibition” value is reported as -15% and the Z score is listed as 2.4.

`Cc1cc(C)cc(NC(=O)Cn2nc3c(N4CCCCCC4)nccn3c2=O)c1`: the “% Inhibition” value is -1% and the Z score worked out at 0.11.

Take `CCc1nnc2n1CCN(Cc1cn3ccccc3n1)C2`: the “% Inhibition” value came to 3% and the Z score is -0.45.

With `Cc1nc(COc2ccccc2)sc1C(=O)NCc1cccnc1`, the “% Inhibition” value is -8% and the Z score was 1.08.

In the case of `CC(C)c1onc(C(F)(F)F)c1C(=O)NC[C@H](C)N1CCOCC1`, the “% Inhibition” value is listed as -6% and the Z score turned out to be 0.57.

As for `COc1ccccc1C(=O)Nc1ccc(C2OC(=O)N(Cc3ccc(C)cc3)C2C(=O)Nc2cccc(F)c2)cc1` (centres undefined), the “% Inhibition” value is listed as -6% and the Z score was 1.02.

As for `Cc1cc(NC(=O)NC(C)C)c2[nH]c(C(=O)N3CCOCC3)c(-c3ccccc3)c2c1`, the “% Inhibition” value was 37% and the Z score is -4.21.

In the case of `O=C(CC[C@@H]1NC(=O)NC1=O)NCc1noc(C2CCCC2)n1`, the “% Inhibition” value is -3% and the Z score amounted to 0.38.

In the case of `CCn1c(C)nnc1Cn1c(=O)n(C2=CCCCC2)c2ccccc21`, the “% Inhibition” value is -11% and the Z score is reported as 1.35.

As to `COc1ccc(N2C(=O)[C@@H]3CCCN3[C@H]2c2ccc(Cl)c(Cl)c2)cc1`, the “% Inhibition” value is given as -12% and the Z score is recorded as 1.52.

As to `CC(C)(C(=O)N1CCOc2ccc(F)cc2C1)C1CC1`, the “% Inhibition” value came out at 0% and the Z score stood at 0.

Consider `CC(C)(CN1CCCCCC1)Nc1cc(C2CC(O)C2)ncn1` (centres undefined), for which the “% Inhibition” value stood at 0% and the Z score is 0.04.

`N#CC1(C(=O)NC[C@H](O)c2ccsc2)CCCC1`: the “% Inhibition” value is given as -13% and the Z score is listed as 1.49.

On to `Cc1ccc(C)c(CN(c2cc(F)cc(F)c2)S(=O)(=O)c2cccn3cnnc23)c1`, for which the “% Inhibition” value is on record as -7% and the Z score stood at 0.91.

Turning to `CCn1nc(C)cc1CN(C)Cc1c(C)n[nH]c1C`, the “% Inhibition” value stood at 6% and the Z score was -0.81.

Turning to `Cc1nc2ccc(NC(=O)[C@@H]3CC=CCC3)cc2s1`, the “% Inhibition” value is given as -4% and the Z score worked out at 0.47.

`CC1OCCC1NC(=O)CCCNC(=O)OC(C)(C)C` (centres undefined): the “% Inhibition” value is recorded as -11% and the Z score is listed as 1.46.

On to `Cc1nn(CC(=O)N2CCOC[C@@H](O)C2)cc1Cl`, for which the “% Inhibition” value was -5% and the Z score is 0.77.

`O=C(CCc1cc2n(n1)CCCN(c1ncnc3c1CCC3)C2)NCCO`: the “% Inhibition” value is -14% and the Z score turned out to be 1.27.

For `Cc1cc(C)c(C)c(C(=O)N2CC=CC2)c1C`, the “% Inhibition” value amounted to 7% and the Z score is recorded as -0.89.

`CC1CN(C(=O)c2ccc3c(c2)OCC(=O)N3)C(C)CO1` (centres undefined): the “% Inhibition” value came to 3% and the Z score is -0.5.

`O=C(c1ccc2nncn2c1)N1CC=C(c2ccc(Cl)cc2)CC1`: the “% Inhibition” value is reported as 0% and the Z score is given as -0.04.

For `Cc1ccc(-c2c([C@@H]3c4ccccc4C(=O)N3CCC(C)C)c3ccccc3n2C)cc1`, the “% Inhibition” value is 29% and the Z score is -3.27.

Take `CCn1c(CC2CCN(Cc3c(C)n[nH]c3C)CC2)nn(C)c1=O`: the “% Inhibition” value is on record as 5% and the Z score is -0.86.

For the compound `CC1CN(c2snnc2C(N)=O)CC(C)O1` (centres undefined), the “% Inhibition” value is 34% and the Z score is reported as -3.86.

Turning to `Cc1ccccc1NC(=O)c1cc(Cl)cc(Cl)c1NC(=O)c1cccnc1`, the “% Inhibition” value is recorded as -3% and the Z score is given as 0.54.

As for `Cc1cccc2oc(N[C@H]3CCCNC3=O)nc12`, the “% Inhibition” value is reported as -7% and the Z score stood at 0.89.

Consider `C[C@H](NC(=O)N1CCOCC1)c1nc2c(s1)CCCC2`, for which the “% Inhibition” value is listed as -8% and the Z score is recorded as 1.11.

As for `CC[C@H]1CN(C(=O)CCc2nc(-c3ccsc3)no2)CCO1`, the “% Inhibition” value is -2% and the Z score is reported as 0.2.

For the compound `Cc1cc(CN(C)c2ncnc3c2CCN(S(C)(=O)=O)CC3)n[nH]1`, the “% Inhibition” value worked out at 0% and the Z score is reported as 0.01.

Take `CN(C)[C@H]1CCC[C@@H]1Nc1ccc2cccc(Cl)c2n1`: the “% Inhibition” value came to 0% and the Z score is on record as -0.01.

For the compound `O=C(Nc1cnc2c(c1)CNC2=O)N[C@@H]1COC2(CCC2)C1`, the “% Inhibition” value is -3% and the Z score is 0.41.

For `Cc1cccc(CN2CCN3CCN(C(=O)NCc4ccccc4)CC[C@H]3C2=O)c1`, the “% Inhibition” value is on record as -11% and the Z score was 1.48.

Values taken from ChEMBL document CHEMBL4888484, “Replenishing the malaria drug discovery pipeline: Screening and hit evaluation of the MMV Hit Generation Library 1 (HGL1) against asexual blood stage Plasmodium falciparum ,using a nano luciferase reporter read-out” (2022).
